# Measured values: PubChem BioAssay AID1476 (National Center for Advancing Translational Sciences (NCATS), 2009)
# In all, about 200,000 compounds went through this assay and about 4,500 (2.2%) were called active. The shares of active, inactive and inconclusive entries below differ from those in the screen. The call rests on the fitted dose curve; in most records, active means well fitted inhibition curve with a large enough effect; inconclusive means small, poorly fitted or top-dose-only effect, or effect the other way; inactive means flat fitted curve, though single readings scatter. A potency beside an inconclusive call is a rough fit, not a confirmed value.
# Molecular target: Cruzipain (Trypanosoma cruzi) (UniProt P25779)
# Assay: qHTS Assay for Promiscuous and Specific Inhibitors of Cruzain (without detergent); further: nearly all actives have a fitted effect of over 40% in size;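 on max response, negative = inhibition: plate controls were enzyme without inhibitor for no effect and buffer without enzyme for full effect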
# Details: purified cruzain, Z-FR-AMC fluorescence, no detergent
# Procedure, shortened: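 Detergent-free condition (0.00005% Triton X-100) in acetate buffer pH 5.5 with DTT. 1.5 nM enzyme and compound were pre-mixed 15 min, then 2 uM Z-FR-AMC substrate added; reaction progress from fluorescence change between first and third reads (60 s).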
# Potency means the concentration at half of the fitted maximal effect; tags describe the fitted curve by direction and shape.
# Sequence of UniProt P25779 (P25779 whole entry, looked up): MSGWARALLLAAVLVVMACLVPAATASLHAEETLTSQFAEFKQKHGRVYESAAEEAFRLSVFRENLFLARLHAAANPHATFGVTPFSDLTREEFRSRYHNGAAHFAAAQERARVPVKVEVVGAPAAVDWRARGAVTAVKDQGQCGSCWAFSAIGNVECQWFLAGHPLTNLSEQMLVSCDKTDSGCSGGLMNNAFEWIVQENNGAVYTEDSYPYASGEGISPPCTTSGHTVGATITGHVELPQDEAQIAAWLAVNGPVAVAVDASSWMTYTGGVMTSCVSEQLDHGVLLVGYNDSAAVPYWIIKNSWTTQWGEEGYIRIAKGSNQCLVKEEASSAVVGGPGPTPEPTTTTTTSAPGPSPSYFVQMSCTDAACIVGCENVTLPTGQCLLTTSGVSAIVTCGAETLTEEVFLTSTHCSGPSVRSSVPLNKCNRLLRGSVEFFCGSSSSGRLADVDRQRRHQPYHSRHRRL
SMILES,Potency,"max response, negative = inhibition"
Cc1cccc(C(=O)Nc2sc3c(c2C#N)CCCCC3)c1,"inconclusive: 20 µM [inhibitor, single point]",–
COC(=O)c1cc(=O)n(CCc2ccc(OC)cc2)c(=Nc2ccc(F)c(Cl)c2)s1,–,inactive: -20.4%
Cc1ccc(C)c(NC(=S)NC(NC(=O)N(C)C)C(Cl)(Cl)Cl)c1 (centres undefined),–,inactive: -5.79%
CCOC(=O)c1ccc(N=c2sc(C(=O)OC)cc(=O)n2CCCN2CCOCC2)cc1,"inconclusive: 31.6 µM [activator, single point]",–
O=[N+]([O-])c1ccc(N2CCN(c3ccc(Cl)nn3)CC2)c(Cl)c1,"inconclusive: 39.8 µM [inhibitor, single point]",–
CCOc1ccc(Nc2nc(Cc3nnc(SCC(=O)NCc4ccco4)n3CC)cs2)cc1,"inconclusive: 39.8 µM [activator, single point]",–
O=C(CC1C(=O)N(c2ccccc2)C(=O)N1Cc1ccc(F)cc1)Nc1cccc(F)c1 (centres undefined),–,inactive: -12.1%
N#Cc1cccc(NC(=O)N2CC[C@@]3(CCCN(C(=O)c4ccco4)C3)C2)c1,–,inactive: 2.98%
COC(=O)c1ccc(COC(=O)c2ccc(CS(=O)(=O)c3ccc(C)cc3)cc2)cc1,active: 25.1 µM,–
CCCCN(C(=O)CSc1nnc(-c2ccccc2OC)n1C)c1c(N)n(Cc2ccccc2)c(=O)[nH]c1=O,"inconclusive: 31.6 µM [activator, single point]",–
COc1ccc(-c2cn3cccnc3n2)cc1NC(=O)Nc1ccc(Cl)cc1,"inconclusive: 31.6 µM [activator, single point]",–
Cc1ccccc1Cn1cc(NC(=O)c2noc3c2CC(C(C)(C)C)CC3)cn1 (centres undefined),"inconclusive: 7.94 µM [activator, full curve]",–
O=C(Nc1ccc2c(c1)N(C1CCCC1)C(=O)c1ccccc1S2)c1ccccc1F,"inconclusive: 39.8 µM [inhibitor, single point]",–
COc1ccc(NC(=O)c2c(-c3ccccc3)c(-c3ccccc3)nn(C)c2=O)cc1OC,"inconclusive: 39.8 µM [activator, single point]",–
Cc1ccc(-c2nc(NC(=O)CSc3nc(C)nc4sc5c(c34)CCCC5)ns2)cc1,–,inactive: 18.8%
COc1ccc(S(=O)(=O)N2CCN(c3ccc4nnc(-c5ccc(F)cc5)n4n3)CC2)cc1,"inconclusive: 7.94 µM [activator, full curve]",–
Cc1ccccc1Cn1c2ccccc2c2cnn(CC(=O)NCc3ccccn3)c(=O)c21,"inconclusive: 20 µM [activator, partial curve]",–
CCSc1ccccc1C(=O)Nc1ccc(-c2nc3ccccc3s2)c(O)c1,active: 7.94 µM,–
COc1ccccc1NC(=O)c1nc[nH]c1C(=O)Nc1ccccc1OC,active: 10 µM,–
CCOc1ccc2nc(Cl)c(C3CC(c4ccccc4)=NN3C(=O)c3cccs3)cc2c1 (centres undefined),active: 7.94 µM,–
Cc1ccc(NC(=O)c2cc(S(=O)(=O)N3CCc4ccccc43)cn2C)c(Cl)c1,–,inactive: -4.88%
CCS(=O)(=O)N1Cc2ccccc2CC1C(=O)Nc1nccs1 (centres undefined),–,inactive: -4.64%

SMILES,Potency,"max response, negative = inhibition"
CCc1nc2cccnc2n1-c1ccc(CC(=O)Nc2cccc(C)c2C)cc1,–,inactive: -4.55%
CCOc1ccc(-c2c(C)nn3c(C)c(C(=O)NCCc4ccc(Cl)cc4)cnc23)cc1OCC,"inconclusive: 25.1 µM [activator, partial curve]",–
COc1cccc(-c2csc(N3CCN(C(=S)Nc4ccccc4OC)CC3)n2)c1,"inconclusive: 25.1 µM [inhibitor, single point]",–
CCOc1ccccc1NC(=O)N1CCc2c(sc(C)c2CC)C1c1ccccc1 (centres undefined),"inconclusive: 39.8 µM [inhibitor, single point]",–
CNC(=O)/C(C#N)=C/c1c(N(Cc2ccccc2)Cc2ccccc2)nc2c(C)cccn2c1=O,"inconclusive: 31.6 µM [activator, single point]",–
Cc1cccc(N=C2NC(=O)/C(=C/C=C/c3ccco3)S2)c1,"inconclusive: 25.1 µM [inhibitor, single point]",–
CN(C)C(=O)COC(=O)c1ccccc1Nc1ccc(SC(F)F)cc1,"inconclusive: 39.8 µM [activator, single point]",–
COc1cc(/C=N/NC(=O)CCn2c3ccccc3c3ccccc32)cc(OC)c1OC,"inconclusive: 31.6 µM [activator, single point]",–
CN(C)c1ccc(Sc2nnc(NC(=O)Nc3ccc(Cl)cc3Cl)s2)cc1,active: 10 µM,–
CCOC(=O)c1c(C)sc2c1N(C(=O)CN1CCOCC1)c1cc(Cl)ccc1S2,"inconclusive: 31.6 µM [activator, single point]",–
O=c1n(Cc2ccc(Cl)cc2)c2sc3c(c2c2ncnn12)CCCC3,active: 25.1 µM,–
Cc1ccc(/C=N/Nc2ncc(Cl)cc2Cl)s1,"inconclusive: 31.6 µM [inhibitor, single point]",–
Cc1noc(/C=C/c2cccs2)c1S(=O)(=O)N1CCC(C(=O)NCc2ccccc2Cl)CC1,active: 12.6 µM,–
Cc1ccc(C2CC(=O)c3cnc(N4CCc5ccccc5C4)nc3C2)cc1 (centres undefined),"inconclusive: 39.8 µM [inhibitor, single point]",–
COc1cc(OC)cc(C(=O)N2CCN(Cc3ccccc3C(F)(F)F)CC2)c1,"inconclusive: 39.8 µM [activator, single point]",–
Cc1ccccc1C(=O)NC1(C(F)(F)F)C(=O)Nc2c1c(=O)[nH]c(=O)n2-c1ccc(F)cc1 (centres undefined),–,inactive: 1.14%
COC(=O)[C@@]1(Cc2ccc(F)cc2)[C@H]2c3cc(C(=O)N(C)C)n(Cc4ccc(C)c(F)c4F)c3C[C@H]2CN1C(=O)c1ccccc1,"inconclusive: 31.6 µM [activator, single point]",–
Cn1c(=O)c2c(ncn2CC(=O)Nc2cccc(Cl)c2Cl)n(C)c1=O,"inconclusive: 25.1 µM [inhibitor, single point]",–
CC(C)c1nc2sc3c(SCC(=O)NCc4ccco4)ncnc3c2c2c1CCC2,"inconclusive: 25.1 µM [activator, partial curve]",–
CCN(CC)C(=O)CSc1nc2cc(OC)c(OC)cc2c(=O)n1Cc1ccc(Cl)cc1,"inconclusive: 31.6 µM [activator, single point]",–
O=C1C2ON(c3ccccc3)C(c3ccncc3)C2C(=O)N1c1ccc(N2CCOCC2)cc1 (centres undefined),"inconclusive: 39.8 µM [activator, single point]",–
COc1cc(NC(=S)N2CCN(C(c3ccccc3)c3ccccc3)CC2)cc(OC)c1,"inconclusive: 25.1 µM [inhibitor, single point]",–

SMILES,Potency,"max response, negative = inhibition"
COc1ccc(-c2nn3c(-c4ccccc4C)nnc3c3ccccc23)cc1,–,inactive: 16.3%
CC(=O)c1ccc(NC(=O)c2sc(-n3nc(C)c(Cc4ccccc4)c3C)nc2C)cc1,"inconclusive: 3.98 µM [activator, single point]",–
Cc1ccc2c(c1)N(C(=O)CCC(=O)NCc1ccccc1Cl)CC(C)O2 (centres undefined),–,inactive: -2.57%
Cc1ncc([N+](=O)[O-])n1CCOC(=O)Nc1ccc(Cl)c(Cl)c1,–,inactive: -15.7%
O=[N+]([O-])c1ccc(C2=Nn3c(nnc3-c3ccc(Cl)cc3)SC2)o1,–,inactive: -5.65%
CN1CCc2c(sc3c2C(=O)NC(c2cn(Cc4ccccc4)c4ccccc24)N3)C1 (centres undefined),"inconclusive: 39.8 µM [inhibitor, single point]",–
CCOC(=O)c1sc(NC(=O)C2c3ccccc3Oc3ccccc32)c(C(=O)OCC)c1C,"inconclusive: 2.51 µM [activator, partial curve, poor fit]",–
CCn1cc(C(=O)NCc2ccccc2Cl)c(=O)c2cc(S(=O)(=O)N3CCc4ccccc4C3)ccc21,active: 12.6 µM,–
Cc1c(N=Cc2c(O)n(CCc3ccccc3)c(=O)[nH]c2=O)c(=O)n(-c2ccccc2)n1C,"inconclusive: 25.1 µM [inhibitor, single point]",–
CCN(CC)c1ccc2c(C)c(-c3ccc(N)cc3)c(=O)oc2c1,"inconclusive: 39.8 µM [inhibitor, single point]",–
O=C(CSc1nc(=O)n(CCN2CCOCC2)c2c1CCC2)Nc1ccccc1,–,inactive: 9.46%
COCCCNC(=O)c1ccc2c(c1)N(Cc1ccccc1)C(=O)c1ccccc1S2,"inconclusive: 39.8 µM [activator, single point]",–
O=C(c1ccc(S(=O)(=O)N2CCCCCC2)cc1)N1CCC(CN2C(=O)c3cccc4cccc(c34)C2=O)CC1,"inconclusive: 31.6 µM [inhibitor, single point]",–
Cc1ccc(S(=O)(=O)NC2c3cccc4cccc(c34)C2Sc2nncn2C)cc1 (centres undefined),–,inactive: -7.69%
Cc1ccc(N=CC2=C(O)CC(c3ccc(Cl)cc3)CC2=O)cc1 (centres undefined),"inconclusive: 39.8 µM [activator, single point]",–
COc1ccccc1Nc1nn2c(=O)c3ccc(C(=O)N4CCCC(C)C4)cc3nc2s1 (centres undefined),"inconclusive: 39.8 µM [activator, single point]",–
Cc1cc(NC(=O)c2cnn3c(C(F)(F)F)cc(-c4ccc(Br)cc4)nc23)no1,"inconclusive: 39.8 µM [activator, single point]",–
CCOC(=O)c1oc2ccc(S(=O)(=O)n3nc(-c4ccc(Br)cc4)cc3N)cc2c1C,–,inactive: -4.88%
CCOC(=O)c1c(NC(=O)CSc2nnc(C)s2)sc2c1CCC(CC)C2 (centres undefined),"inconclusive: 39.8 µM [activator, single point]",–
Cc1cccc(Oc2coc3cc(OC(=O)c4cncc(Br)c4)ccc3c2=O)c1,"inconclusive: 25.1 µM [inhibitor, single point]",–
